Data published in PubChem BioAssay AID686979 (National Center for Advancing Translational Sciences (NCATS), 2013).
Screen size: about 420,000 compounds; about 50,000 (12%) were called active. Inconclusive results, whose numbers are uncertain, are shown with a selection of clear calls. Calls come from the whole dose curve; as a rule, active = well fitted inhibition curve with a large enough effect; inconclusive = small, poorly fitted or top-dose-only effect; inactive = flat fitted curve, though single readings scatter. No potency is given beside an inconclusive call; the fits are too rough.

assay: qHTS for Inhibitors of human tyrosyl-DNA phosphodiesterase 1 (TDP1): qHTS in cells in presence of CPT; conditions: chicken DT40 Tdp1-/-;hTDP1 cells + 20 nM CPT, ATP luminescence, 48 h; activity change, negative = growth inhibition: at 46.2 µM (top of the series) unless noted; note: nearly all actives have a fitted effect of over 55% in size
How it was run: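 Chicken DT40 Tdp1-/- cells complemented with human TDP1, 400 cells/well, exposed to compounds plus 20 nM camptothecin for at least 48 h at 37 C; viability read as ATP content by CellTiter-Glo luminescence.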
% is set by controls: 0 for no effect and ±100 for the full control effect; potency is the fitted concentration of half-maximal effect; tags give direction and shape of the fitted curve.

Compound | Potency | activity change, negative = growth inhibition
COc1cccc(NC(=O)/C(C#N)=C/c2c(C)n(Cc3ccccc3)c3ccccc23)c1 | inconclusive [inhibitor, partial curve] | –
CCOC(=O)c1c(C)[nH]c(C)c1S(=O)(=O)N1CCCC(C(=O)Nc2cccc(CC)c2)C1 (configuration not stated) | inconclusive [inhibitor, single point] | –
O=C(/C=C/c1cnc2ccccc2n1)NC1CCCCCC1 | inconclusive [inhibitor, single point] | –
COc1cc(OC)c(NC(=O)CCc2nc(-c3ccc(C)cc3)no2)cc1Cl | active: 18.4 µM | –
COc1ccc(-n2nnc(-c3nsc(NC(=O)c4cccc(C)c4)n3)c2C)cc1OC | inconclusive [inhibitor, partial curve] | –
COc1cccc(N2CCN(C(=O)c3oc4ccccc4c3NC(=O)Cc3ccc(OC)c(OC)c3)CC2)c1 | active: 16.4 µM | –
CC1CCCN(C(c2cccs2)c2nnnn2Cc2ccccc2)C1 (configuration not stated) | inconclusive [inhibitor, single point] | –
CN(CCCc1cnc[nH]1)C(=S)NCCCN(Cc1ccc(Cl)cc1)c1ccc(Br)cn1 | inconclusive [inhibitor, single point] | –
CCCCn1c(N)c(N(CC(C)C)C(=O)CN2C(=O)c3ccccc3C2=O)c(=O)[nH]c1=O | inconclusive [inhibitor, single point] | –
CC1CCc2c(sc3nc(CN4CCOCC4)nc(Sc4ccccc4)c23)C1 (configuration not stated) | inconclusive [inhibitor, single point] | –
CN(C)CCCN(C(=O)c1cc(-c2cccs2)nc2ccccc12)c1nc2ccc(F)cc2s1 | active: 23.1 µM | –
O=C(c1cccc(Br)c1)N1CCN(c2cnn(-c3ccccc3)c(=O)c2Cl)CC1 | inconclusive [inhibitor, single point] | –
O=C(Nc1ccc(Cl)c(C(F)(F)F)c1)c1nc2ccccc2nc1N1CCCCC1 | inconclusive [inhibitor, partial curve] | –
Cc1nn(Cc2ccccc2Cl)c2sc(C(=O)NC(C)(C)C)cc12 | – | inactive: -1.13%
CCOC(=O)c1ccc(-n2c(CN3CCC(O)CC3)nc3ccc([N+](=O)[O-])cc3c2=O)cc1 | active: 20.6 µM | –
Cc1[nH]c2ccc(C(=O)Nc3ccncc3)cc2c1C | active: 13 µM | –
O=C(N/N=C\c1cc2c(cc1Cl)OCO2)c1cccnc1 | – | inactive: -7.26%
COc1cccc(S(=O)(=O)NCC(=O)N2CCCCCC2)c1 | – | inactive: 18.6%
CCOCCCNC(=O)c1cn(CC(C)C)c(=O)c2c1c1ccccc1n2C | inactive | –
Cn1c(SCC(=O)Nc2nc3ccccc3s2)ncc(C(=O)Nc2ccc(Cl)cc2)c1=O | – | inactive: -8.36%
Cc1ccc(Cc2c(-c3ccc(C)cc3)nc3ccc(Br)cn23)cc1 | active: 20.6 µM | –
COc1cc(/C=C\c2ccc(OC)cc2OC)cc(OC)c1 | active: 7.5 µM | –
O=C(NCCCN1CCOCC1)c1ccc2c(=O)n(Cc3ccccc3)c(=S)[nH]c2c1 | – | inactive: -23.1%
CC(=O)c1ccc(C(=O)N2CCCC(CO)(Cc3ccccc3C)C2)s1 (configuration not stated) | inconclusive [inhibitor, single point] | –

Compound | Potency | activity change, negative = growth inhibition
CC(=O)Nc1ccc2c(c1)-c1ccc(F)cc1C2=O | – | inactive: -5.23%
O=C(CN1CCc2cc3c(cc2C1)OCCCO3)Nc1cccc([N+](=O)[O-])c1 | inconclusive [inhibitor, single point] | –
O=C(NCc1ccccc1)NC(O)C(Cl)(Cl)Cl (configuration not stated) | – | inactive: 2.03%
O=C(CCCN1C(=O)/C(=C/c2ccccc2Cl)SC1=S)Nc1ccccn1 | inconclusive [inhibitor, single point] | –
C=C(C)c1cccc(C(C)(C)NC(=O)N2CCN(c3ccccc3OC)CC2)c1 | inconclusive [inhibitor, partial curve, poor fit] | –
CN(C)c1ccc(NC(=O)c2cc3c(=O)n4ccccc4nc3n2C)cc1 | inconclusive [inhibitor, partial curve] | –
CCCCCCCCCC[n+]1ccc(/C=C/c2c[nH]c3ccccc23)c2ccccc21 | active: 1.58 µM | –
CN(CC(=O)Nc1c(Cl)cccc1Cl)C(=O)c1cc(S(=O)(=O)N(C)C)ccc1N1CCCC1 | inconclusive [inhibitor, single point] | –
O=C(COc1ccc(C(=O)NCC2CCCO2)cc1)Nc1cccc(C(F)(F)F)c1 (configuration not stated) | inconclusive [inhibitor, single point] | –
CSc1ccc(CN2CCCC(CNC(=O)c3ccc(F)cc3)C2)cc1 (configuration not stated) | – | inactive: 8.07%
COc1ccc2c(c1)C(=NO)c1cc(OC)ccc1-2 | inconclusive [inhibitor, partial curve, poor fit] | –
COc1ccc(C(=O)NC(=S)Nc2ccc(Cc3ccncc3)cc2)cc1 | inconclusive [inhibitor, single point] | –
CC(Sc1nc2ccccc2s1)C(=O)N1CCOCC1 (configuration not stated) | – | inactive: 4.16%
Cc1cccn2c(=O)c3cc(C#N)c(=O)n(-c4nnc(SCc5ccc(F)cc5)s4)c3nc12 | inconclusive [inhibitor, single point] | –
COCCNC(=O)C1(C)Cc2c(-c3cccc(C(N)=O)c3)ccnc2O1 (configuration not stated) | inconclusive [inhibitor, single point] | –
COc1ccc(OC)c(C(C)NC(=S)NC2CCCCC2)c1 (configuration not stated) | inconclusive [inhibitor, single point] | –
O=C(CSc1cccc2cccnc12)OCC(=O)c1ccccc1 | inconclusive [inhibitor, single point] | –
COc1ccc(C(=O)Nc2nnc(S(=O)(=O)N(C)Cc3ccccc3)s2)cc1 | – | inactive: 5.45%
COCCNC(=O)C1(C)CCCN(Cc2ccc(-c3ccccn3)cc2)C1 (configuration not stated) | – | inactive: -28.5%
CCCCCCCc1c(O)nc(SCC(=O)O)[nH]c1=O | – | inactive: 8.91%
COc1ccc(C(=O)OC(C)CN2CCOCC2)cc1 (configuration not stated) | – | inactive: -3.22%
COC(=O)[C@@H]1CCCN1Cc1c(C(=O)N2CCOCC2)nc2c(C)cccn12 | – | inactive: 8.56%
O=C(CN1CCN(c2ccccc2F)CC1)N1CCc2ccccc21 | – | inactive: -1.42%
